# Reference: PMC4336329 (PLoS ONE, 2015)
# Among all 310,000 compounds or so, about 14,000 (4.5%) showed an effect of 50% or more. The effect is printed as a negative number. This is one part of the list.
# Molecular target: human ether-à-go-go-related gene (hERG) potassium channel (human, UniProt Q12809)
# Test: primary screen, population patch clamp on CHO cells stably expressing hERG
# 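Note: peak tail current of the secondary pulse compared with the same well before compound.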
# human ether-à-go-go-related gene (hERG) potassium channel, sequence (Q12809 whole entry, looked up): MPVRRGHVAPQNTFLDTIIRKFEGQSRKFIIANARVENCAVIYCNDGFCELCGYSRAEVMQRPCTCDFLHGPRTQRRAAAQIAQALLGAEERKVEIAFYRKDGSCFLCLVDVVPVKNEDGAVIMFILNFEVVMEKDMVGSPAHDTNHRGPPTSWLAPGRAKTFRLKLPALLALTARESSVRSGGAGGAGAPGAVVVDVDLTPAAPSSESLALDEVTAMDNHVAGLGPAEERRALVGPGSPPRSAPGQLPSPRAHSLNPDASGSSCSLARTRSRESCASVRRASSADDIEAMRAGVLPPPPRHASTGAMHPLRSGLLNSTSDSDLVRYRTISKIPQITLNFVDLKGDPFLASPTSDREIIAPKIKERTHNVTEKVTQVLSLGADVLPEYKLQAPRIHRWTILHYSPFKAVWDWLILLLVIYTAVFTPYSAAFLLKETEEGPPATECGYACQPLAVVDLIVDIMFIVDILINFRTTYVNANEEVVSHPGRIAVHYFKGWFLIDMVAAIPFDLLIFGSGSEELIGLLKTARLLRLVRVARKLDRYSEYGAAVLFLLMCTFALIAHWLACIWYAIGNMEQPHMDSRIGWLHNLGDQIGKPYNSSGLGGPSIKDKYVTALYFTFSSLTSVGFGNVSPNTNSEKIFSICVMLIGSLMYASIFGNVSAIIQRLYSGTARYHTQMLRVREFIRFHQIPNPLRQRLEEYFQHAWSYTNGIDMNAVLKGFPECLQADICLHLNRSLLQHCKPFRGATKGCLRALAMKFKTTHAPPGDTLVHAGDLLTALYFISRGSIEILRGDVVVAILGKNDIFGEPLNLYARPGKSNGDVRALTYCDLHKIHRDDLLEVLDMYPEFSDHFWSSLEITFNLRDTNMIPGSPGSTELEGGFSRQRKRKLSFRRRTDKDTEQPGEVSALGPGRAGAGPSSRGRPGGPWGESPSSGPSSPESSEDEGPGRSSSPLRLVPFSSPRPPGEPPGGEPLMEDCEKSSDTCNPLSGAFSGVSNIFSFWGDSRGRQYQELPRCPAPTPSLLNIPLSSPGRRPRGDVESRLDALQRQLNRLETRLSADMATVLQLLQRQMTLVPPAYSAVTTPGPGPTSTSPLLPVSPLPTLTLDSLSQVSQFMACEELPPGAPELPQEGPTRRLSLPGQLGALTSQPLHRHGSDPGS
row,SMILES,"hERG current change (%, negative = inhibition) at 10uM [%]"
1,O=S(=O)(Oc1ccccc1N1CCCCC1)c1ccccc1,-1.07
2,CCCCn1c(N)c(N(CC)C(=O)c2cnc(C)cn2)c(=O)[nH]c1=O,4.83
3,CSC1=NCCN1S(=O)(=O)c1ccccc1,1.28
4,CC(C)(CO)CNC(=O)CCc1nnc(CCCc2ccccc2)o1,-14.2
5,COc1cccc(NC(=O)Cn2c(-c3cncs3)nc3ccccc32)c1,-23.9
6,O=C(CCC1CCCC1)N1CCN(C(=O)COc2ccccc2)CC1,-28.8
7,COc1ccc(NC2CCCN(C(=O)CSc3ccccn3)C2)cc1OC (stereo not drawn),2.08
8,COC(=O)c1ccccc1NC(=S)NC(=O)CC(C)C,0.413
9,CCOCC(=O)Nc1cc(C(=O)Nc2ccc(F)cc2)ccc1Cl,29.9
10,COc1ccc(-c2cc(C(F)(F)F)n3nc(C(=O)O)cc3n2)cc1OC,-4.49
11,CC(=O)NC(c1ccccc1)c1c(O)ccc2ccccc12 (stereo not drawn),5.99
12,CC(O)Cc1cn(CC(=O)N2CCN(C(=O)OC(C)(C)C)CC2)nn1 (stereo not drawn),12.8
13,O=C(Nc1cccs1)Nc1ccccc1Cl,-0.641
14,O=C(Nc1ccccc1F)c1oc2ccccc2c1NC(=O)C1CC1,17.9
15,NC(=O)C1Cc2ccccc2CN1S(=O)(=O)c1ccc(Cl)s1 (stereo not drawn),-4.93
16,Cn1c(N)c(C(=O)CSc2nc(N)cc(=O)[nH]2)c(=O)n(C)c1=O,3.42
17,CCN1C(=O)c2ccc(-c3nc4ccccc4c(=O)o3)cc2C1=O,-14.9
18,CC(=O)Nc1ccc2c(c1)N(C(C)=O)c1ccccc1CC2,30.2
19,C=CCn1c(=O)c2c(nc3n2CCCN3Cc2ccccc2)n(C)c1=O,-3.12
20,CCOC(=O)C1=C(CSc2nc(CC)c(C)cc2C#N)OC(N)=C(C#N)C1c1ccc(OC)cc1 (stereo not drawn),-1.84
21,O=C(Nc1ccc(Br)cc1F)C1CCCO1 (stereo not drawn),-6.78
22,O=C(NC1CCCCC1)c1ccc(N2CCCC2=O)cc1,14.9
23,Cc1ccc(C)c(NC(=O)C2CC(=O)N(C(C)C)C2)c1 (stereo not drawn),-11.6

row,SMILES,"hERG current change (%, negative = inhibition) at 10uM [%]"
1,CCCc1cc(C(=O)N2CCC(n3nccc3NC(=O)c3ccc(OC)cc3)CC2)no1,-23.1
2,CC1=C(C(=O)OC2CCCCC2)C(c2ccccc2Br)NC(=O)N1 (stereo not drawn),20.7
3,c1ccc2c(c1)OCCOCCOCCOCCOc1ccccc1OCCOCCOCCO2,-62.1
4,CCCCP(=O)(O)c1ccccc1,-3.79
5,COc1cc(/C=C/c2ccc3cccc(OC)c3n2)c(O)c([N+](=O)[O-])c1,9.97
6,Cc1[nH]c2ccccc2c1SCCN,2.5
7,CN(c1ccc(Br)cc1)S(=O)(=O)c1ccc2[nH]cc(C(=O)NCCN3CCOCC3)c(=O)c2c1,-9.15
8,CC(=O)N[C@@H](Cc1c[nH]c2ccccc12)C(=O)OCC(=O)NCc1ccc2c(c1)OCO2,16.2
9,COCCn1c(=NC(=O)c2cc3ccccc3oc2=O)sc2cc(S(N)(=O)=O)ccc21,-11.9
10,Cn1nnnc1SCc1cccc2ccccc12,33.2
11,NS(=O)(=O)c1ccc(N=Cc2c(O)c3ccccc3oc2=O)cc1,8.15
12,COc1cc(C)c(Cl)cc1S(=O)(=O)n1cnc(C)c1,1.5
13,COc1ccc(CSCC(=O)N/N=C/c2ccc(OCC(=O)NCc3ccco3)cc2)cc1,-5.97
14,Cc1ccc(C)c(N2C(=N)S/C(=C\c3ccc(-c4ccccc4C(=O)O)o3)C2=O)c1,24.1
15,COc1ccccc1-n1cnnc1SC1CCOC1=O (stereo not drawn),4.66
16,COc1ccc(Cl)cc1S(=O)(=O)NCc1cccs1,-10.3
17,CCOC(=O)N1CCC(N(CCN(C)C)C(=S)Nc2cc(C)cc(C)c2)CC1,-16.4
18,CSc1ccc(CNCCCSc2ncccn2)cc1.Cl,-26
19,O=C(N/C=C/n1cnc2cc(C(F)(F)F)ccc21)c1ccccc1,3.55
20,Cc1ccc(C)c(-c2csc(N)c2C(=O)OC(C)C)c1,11
21,CCC(C(=O)Nc1ccc2c(c1)OCCO2)c1ccccc1 (stereo not drawn),13.4
22,CCOC(=O)c1[nH]c(=O)[nH]c1CSCCO,10.8
23,COc1cccc2sc(=NC(=O)CS(=O)(=O)c3ccc(F)cc3)n(C)c12,-0.213

row,SMILES,"hERG current change (%, negative = inhibition) at 10uM [%]"
1,CCC(CC)N1CCN(C(=O)Cc2ccccc2)CC1.O=C(O)C(=O)O,12.9
2,COc1ccc(NC(=O)COC(=O)C2=COCCO2)cc1OC,14.2
3,CCOc1ccc(CN(C(=O)c2ccccn2)c2ccc(OC)c(Cl)c2)cc1,6.53
4,O=C(O)CCCCCCCCc1cn(Cc2ccc(C(=O)c3ccccc3)cc2)nn1,19.5
5,COC(=O)N1CN(C(=O)OC)CN(C(=O)OC)C1,8.81
6,COc1cc(CC(=O)OCC(=O)Nc2ncc(Cl)cc2Cl)cc(OC)c1OC,7.58
7,COc1ccc(NC(=O)C23CCC(C2)C(C)(C)C3=O)cc1 (stereo not drawn),9.09
8,Cc1ccc[n+](-c2nc([O-])sc2/C=N/Nc2ccc([N+](=O)[O-])cc2)c1,12.2
9,COc1cc(/C=C(\C#N)c2nc3ccccc3[nH]2)cc(OC)c1O,-13.7
10,CCc1ccccc1NC(=O)CN1CCN(CC(=O)Nc2cc(C)ccc2OC)CC1,-28.4
11,COc1cccc(/C=C2\SC(=S)N(CCCC(=O)NC3=NCCS3)C2=O)c1,19.2
12,COc1ccc(-n2nc3c(c2NC(C)=O)CS(=O)(=O)C3)cc1,23.8
13,CC(=O)Nc1ccc(NC(=O)C(C)OC(=O)CCCN=C2NS(=O)(=O)c3ccccc32)cc1 (stereo not drawn),8.81
14,COc1ccc(N(CN2C(=O)C3CC=CCC3C2=O)C(=O)c2ccco2)cc1 (stereo not drawn),8.35
15,CCOC(=O)CSC1=N/C(=C\c2ccc(OC)c(OC)c2)C(=O)N1C,-69.7
16,O=C(O)c1cccc(NC(=S)NC(=O)c2cccc(OCc3ccccc3)c2)c1,28.7
17,CN(c1ncc(C(F)(F)F)cc1Cl)n1cc(C(=O)O)c2ccccc2c1=O,4.8
18,CN1CCN(C(=S)C(=O)NCc2ccccc2)CC1,-2.07
19,CC(=O)c1cccc(CN2CCCC(N3CCN(c4ccccc4F)CC3)C2)c1 (stereo not drawn),-35.3
20,CC(C)N1C(=O)CC(Nc2ccc(N3CCOCC3)cc2)C1=O (stereo not drawn),2.64
21,CN(C)/C=C\C(=C/C(=O)C(F)(F)F)Nc1ccccc1Oc1ccccc1,-24.4
22,COc1ccccc1CCC(=O)NNC(=O)c1ccncc1,7.46
23,O=C(NCCCN1CCOCC1)C(=O)NCC1OCCN1S(=O)(=O)c1ccc(Br)cc1 (stereo not drawn),-25.1

row,SMILES,"hERG current change (%, negative = inhibition) at 10uM [%]"
1,Cc1cc(NC(=O)CCC(=O)N(CC(C)C)C(C(=O)NC(C)(C)C)c2ccccc2Cl)no1 (stereo not drawn),14.8
2,CCOC(=O)C1CCN(C(=O)C(=O)c2cn(CC(=O)N3CCCCCC3)c3ccccc23)CC1,16.1
3,COc1cccc(/C=C2\SC(=S)N(NS(=O)(=O)c3ccccc3)C2=O)c1OC,-8.12
4,CC(C)(C)OC(=O)N1CCN(C(=O)Nc2ccc3c(c2)OCCO3)CC1,10.5
5,O=C(NCCCc1ccccc1)c1ccc([N+](=O)[O-])cc1Cl,-36
6,COCCSc1ncnc2c1oc1nc3c(cc12)COC(C)(C)C3,-5.46
7,O=C(Nc1ccccc1)N1CCN2C(=O)c3ccccc3C12c1ccccc1 (stereo not drawn),-20.8
8,Cc1cc(O)c(C(C)C)cc1C1(c2cc(C(C)C)c(O)cc2C)OC(=O)c2ccccc21,13.5
9,CC1CCN(C(=O)Cn2ncc3c([nH]c4ccccc43)c2=O)CC1,0.195
10,Cc1nn(C2CCS(=O)(=O)C2)c(Cl)c1/C=C/C(=O)OCC(=O)Nc1ccc2c(c1)OCO2 (stereo not drawn),7.01
11,CC(C)COC(=O)n1c(=O)oc2ccc(S(=O)(=O)N3CCCCC3)cc21,-13.9
12,Cc1cc(C)n2nc(C(=O)N/N=C/c3ccc(O)cc3)nc2n1,21.4
13,Cc1ccc(-n2ncc3c(=O)n(CC(=O)NC4CCCCC4)cnc32)cc1,20.4
14,Cc1c(Cl)cccc1NC(=O)CCNC(=O)N1CC(=O)Nc2ccccc21,18.3
15,Cc1cccc(/C=N/NC(=O)CNc2cccc3ccccc23)n1,-4.25
16,CC(=O)Cc1nsc(Nc2ccc3c(c2)OCCO3)n1,14.7
17,NC(=O)CCn1nc(-c2ccccc2)c2ccccc2c1=O,2.06
18,Cc1ccc(CSCC(=O)NCc2ccc(F)cc2)cc1,-17.6
19,O=C(CSCc1nc2scc(-c3cccs3)c2c(=O)[nH]1)Nc1ccccn1,1.3
20,CCOc1ccc(C(=O)c2cnc3ccccc3c2N2CCN(CC)CC2)cc1,-65.5
21,CCc1ccccc1NC(=O)CNC(=O)c1ccccc1OCc1c(C)noc1C,0.715
